The source of these data is PubChem BioAssay AID1645882 (National Center for Advancing Translational Sciences (NCATS), 2021).

In all, about 16,000 compounds went through this assay and about 120 (0.75%) were called active. Another 4% or so got no clear call; they are omitted. Calls come from the whole dose curve; as a rule, active = well fitted inhibition curve with a large enough effect; inconclusive = small, poorly fitted or top-dose-only effect; inactive = no such curve, though single readings can be large or run the other way. The list shows a part of the results.

The target in this experiment is Rap guanine nucleotide exchange factor 3 (Homo sapiens) (UniProt O95398). Put plainly: Validation qHTS for antagonist of cAMP-regulated guanine nucleotide exchange factor 3 (EPAC1).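 Note: plate controls were DMSO for no effect and ATA control for full effect; nearly all actives have a fitted effect of over 75% in size.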 Conditions: EPAC1 Rap1B-BODIPY-GDP exchange, fluorescence; series mostly up to 150 µM; activity change, negative = inhibition: at the top concentration. The method, boiled down: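 Nucleotide exchange followed as fluorescence loss when BODIPY-GDP leaves Rap1B (480 nm excitation, 540 nm emission), read at 5 min intervals over 30 min. Reaction: 100 nM EPAC1, 250 nM RAP1B-BODIPY-GDP, 50 uM GDP; ATA and DMSO define normalization.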
Chain of UniProt O95398 (O95398 whole entry, looked up): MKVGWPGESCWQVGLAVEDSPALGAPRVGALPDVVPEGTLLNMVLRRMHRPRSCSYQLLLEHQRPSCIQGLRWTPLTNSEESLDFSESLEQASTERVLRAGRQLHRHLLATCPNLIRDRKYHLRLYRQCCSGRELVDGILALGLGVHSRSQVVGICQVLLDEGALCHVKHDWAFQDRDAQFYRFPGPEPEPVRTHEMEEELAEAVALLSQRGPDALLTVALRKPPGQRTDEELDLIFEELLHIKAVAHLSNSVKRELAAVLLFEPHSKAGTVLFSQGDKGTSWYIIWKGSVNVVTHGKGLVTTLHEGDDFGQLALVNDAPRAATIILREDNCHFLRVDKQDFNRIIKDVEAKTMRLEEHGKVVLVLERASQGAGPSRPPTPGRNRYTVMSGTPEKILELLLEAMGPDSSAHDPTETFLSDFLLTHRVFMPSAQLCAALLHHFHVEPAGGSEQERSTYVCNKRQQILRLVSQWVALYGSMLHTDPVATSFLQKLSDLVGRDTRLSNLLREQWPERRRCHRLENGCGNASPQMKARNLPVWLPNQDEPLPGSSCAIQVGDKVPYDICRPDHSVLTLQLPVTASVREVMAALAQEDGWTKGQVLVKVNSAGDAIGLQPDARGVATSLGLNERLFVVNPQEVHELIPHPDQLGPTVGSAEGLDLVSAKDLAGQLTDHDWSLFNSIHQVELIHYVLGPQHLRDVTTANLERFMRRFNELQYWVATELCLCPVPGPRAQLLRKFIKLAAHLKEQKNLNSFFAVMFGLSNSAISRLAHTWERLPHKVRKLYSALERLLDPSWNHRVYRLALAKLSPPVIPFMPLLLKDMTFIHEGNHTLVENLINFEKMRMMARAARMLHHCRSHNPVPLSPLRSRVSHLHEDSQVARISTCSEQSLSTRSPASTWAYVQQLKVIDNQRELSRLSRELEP
In the case of `N[C@@H](C(=O)O)c1cc(O)ccc1Cl`, the “activity change, negative = inhibition” value was inactive: 4.84%.

Turning to `Cc1cc(C)c2c(C)ccnc2c1`, the “activity change, negative = inhibition” value is inactive: 18.1%. On to `Cc1cc2c(c(-c3cnccn3)c1)OC(CNC(=O)c1ccccc1C(F)(F)F)C2` (stereo not given), for which the “activity change, negative = inhibition” value was inactive: 10.4%. Turning to `COC(=O)C1N[C@@H]([C@@H](NC(=O)COc2ccccc2)C(=O)NCc2ccc(OC)cc2)SC1(C)C` (stereo not given in full), the “activity change, negative = inhibition” value is inactive: -5.17%. `CN(C)c1ncc2nc(-c3ccccc3)c(=O)n(CCc3ccccc3)c2n1`: the “activity change, negative = inhibition” value was inactive: -1.61%. For `O=C(Cc1ccc(Cl)cc1)c1c(O)cc(O)cc1O` the value was inactive: -19.6%.

Turning to `CCOc1ccc2nc(N3CCCN(CCCn4cccn4)CC3)nc(C)c2c1`, the “activity change, negative = inhibition” value is inactive: 17.1%. The figure for `CCCCCCCCCCCCCC[n+]1ccc(C)cc1` is inactive: 10.5%. For the molecule `CN1C[C@@H]2C[C@H]1CN2c1cc2c(cc1F)c(=O)c(C(=O)O)cn2C1CC1`, the “activity change, negative = inhibition” value is inactive: 20.9%. For `N[C@@H](Cc1c[nH]c2ccc(O)cc12)C(=O)O` the value was “inactive”; for `CN(C)c1ncc2ncc(=O)n(C)c2n1`, inactive: 2.14%; for `O=C(O)Cc1nn(Cc2ccc(Br)cc2F)c(=O)c2ccccc12`, inactive: 13.9%. For `CC(=O)c1ccc(C(=O)NCC2Cc3cccc(-c4ncccn4)c3O2)cc1` (stereo not given) the value was inactive: 0.556%; for `COCCNc1nc(-c2ccoc2)nc2ccccc12`, inactive: -26.2%. For `Cn1cccc1C(=O)N1CCC2(CCCN(Cc3ccncc3)C2)CC1` the value was inactive: 15.2%. For the molecule `COc1ccc(NC(=O)N2CC3(CCN(C(=O)c4cnccn4)CC3)C2)cc1`, the “activity change, negative = inhibition” value is inactive: -0.0013%. For `OCc1ccc(Cl)cc1Cl` the value was inactive: 17.7%; for `CCCCC(CC)CCC(CC(C)C)OS(=O)(=O)O` (stereo not given), “inactive”. The figure for `COc1ccc(NC(=O)N2CC[C@@]3(CCCN(C(=O)c4cccc(F)c4)C3)C2)cc1` is inactive: 32.6%. On to `O=C(c1cnccn1)N1CCC[C@@]2(CCN(c3ncccn3)C2)C1`, for which the “activity change, negative = inhibition” value is inactive: 12.7%. Take `COc1ncc2nc(-c3ccccc3)c(=O)n(C[C@H]3CCCO3)c2n1`: the “activity change, negative = inhibition” value was inactive: 9.58%. As for `CN1C[C@H](C(=O)N[C@]2(C)O[C@@]3(O)[C@@H]4CCCN4C(=O)[C@H](Cc4ccccc4)N3C2=O)C[C@@H]2c3cccc4[nH]cc(c34)C[C@H]21`, the activity change, negative = inhibition result was “inactive”.

In the case of `CN(Cc1ccco1)c1ncnc2ccc(-c3ccccc3Cl)cc12`, the “activity change, negative = inhibition” value is inactive: -23.5%. For the molecule `COc1ccc(-n2c(=O)c(C)nc3cnc(Nc4ccccc4)nc32)cc1`, the “activity change, negative = inhibition” value is inactive: 11%. The entry for `O=C(O)COCCN1CCN(C(c2ccccc2)c2ccc(Cl)cc2)CC1` (stereo not given) is “inactive”. The entry for `N[C@@H]1CONC1=O` is “inactive”; for `COc1ccc2c(=O)c(C)c(-c3ccccc3)oc2c1CN(C)C` it is inactive: 20.1%. For `COc1ccc(-c2nc3cnc(OC)nc3n(C)c2=O)cc1` the value was inactive: 11.1%.

Regarding `COc1cccc(Cn2c(=O)c(-c3cn(C)c4ccccc34)nc3cncnc32)c1`, the “activity change, negative = inhibition” value was inactive: 1.19%. As for `Cn1c(=O)c(-c2ccccc2)nc2cnc(OCc3ccccc3)nc21`, the “activity change, negative = inhibition” value is inactive: 6.83%. Turning to `COCCn1c(=O)c(-c2cn(C)c3ccccc23)nc2cnc(N3CCOCC3)nc21`, the “activity change, negative = inhibition” value is inactive: 4.28%. With `CC(C)N=c1cc2n(-c3ccc(Cl)cc3)c3ccccc3nc-2cc1Nc1ccc(Cl)cc1`, the “activity change, negative = inhibition” value was inactive: 15.3% [at 75.8 µM]. The figure for `COCC(=O)N1CCC[C@@]2(CCN(Cc3ccc(C#N)cc3)C2)C1` is inactive: 9.95%.

`COCCNc1cc(-c2ccccc2C(F)(F)F)ncn1`: the “activity change, negative = inhibition” value was inactive: 25.6%.

As to `O=C(c1ccco1)N1CCC2(CCCN(c3ccncc3)C2)CC1`, the “activity change, negative = inhibition” value was inactive: 15.8%. For the molecule `CC(=O)OC[C@H]1O[C@@H](n2ncc(=O)[nH]c2=O)[C@H](OC(C)=O)[C@@H]1OC(C)=O`, the “activity change, negative = inhibition” value is inactive: 4.2%. As to `CCCOC(=O)c1cc(O)c(O)c(O)c1`, the “activity change, negative = inhibition” value was inactive: -15.6%.

Regarding `CN1CCCc2cc(/C=C/c3ccnc4ccccc34)ccc21`, the “activity change, negative = inhibition” value is inactive: 40%. `c1nc(NCCN2CCOCC2)c2cc(-c3ccc4c(c3)OCO4)ccc2n1`: the “activity change, negative = inhibition” value was inactive: -10.8%. Regarding `O=C(c1csnn1)N1CCC2(CCCN(C(c3ccccc3)c3ccccc3)C2)CC1`, the “activity change, negative = inhibition” value is inactive: -12.6%. The entry for `CC(=O)O[C@]1(C(C)=O)CC[C@H]2[C@@H]3C=C(Cl)C4=CC(=O)[C@@H]5C[C@@H]5[C@]4(C)[C@H]3CC[C@@]21C` is “inactive”.

For `COc1ccc(C(=O)NCc2nc(-c3ccccc3NC(=O)c3cc(C)oc3C)oc2C)cc1F`, the “activity change, negative = inhibition” value was inactive: 3.87%. On to `O=C(O)C1CCCN(CCC=C(c2ccccc2)c2ccccc2)C1` (stereo not given), for which the activity change, negative = inhibition entry is “inactive”. For the molecule `CCCCCCCCCCCCCCCC[n+]1ccc(/C=C/c2c[nH]c3ccccc23)cc1`, the “activity change, negative = inhibition” value is inactive: 88.9%.

Regarding `CC1(C)OC2CC3C4CC(F)C5=CC(=O)C=CC5(C)C4C(O)CC3(C)[C@]2(C(=O)CO)O1` (stereo not given in full), the “activity change, negative = inhibition” value is inactive: -9%.

As to `N=C(N)c1ccc(/C=C/c2ccc(C(=N)N)cc2O)cc1`, the “activity change, negative = inhibition” value was inactive: 14.3%. For `C[C@H]1CN(C2CCCCC2)C(=O)[C@@H]1CC(=O)NCc1ccccc1` the value was inactive: 8.55%. For `O=S1(=O)CCOCCCN1Cc1cccc(F)c1` the value was inactive: 8.06%; for `C[C@@H]1C(=O)CC2C(C)(C)CCC[C@]2(C)[C@@]1(O)CCc1ccoc1` (stereo not given in full), inactive: -5.75%. Take `CC(C)N1CCN(C(=O)c2cnn(-c3nccc(-c4ccc5c(c4)OCO5)n3)c2-c2ccco2)CC1`: the “activity change, negative = inhibition” value was inactive: 7.16%.
